# Some of the results follow.
# Tested on: T1, C. trachomatis L2/434/Bu expressing GFP (CTL2-GFP)
# T1 construct: L2/434/Bu GFP intracellular growth in HeLa cells
# Parameters: species or system HeLa; C. trachomatis total inclusion area by high-content imaging, normalised to DMSO
# Settings: total inclusion area; 28.5 h, 10 µM; inhibitor
# How it was run: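 Post-fluorescence-read fixation, DNA staining with Hoechst and high-content imaging; GFP inclusion area and number per well, and nuclei counts, used as proxies for bacterial growth and host viability.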
row,SMILES,% of control remaining
1,CCCCc1noc(CN2CCCC2C(=O)NCc2ccco2)n1 (stereo not shown) [CBK304036],25.8096
2,Cc1ccc(C(=O)N2CCN(C)CC2)c(N2CCOCC2)n1 [CBK106199],89.5749
3,Nc1ncc(-c2cccc3ccccc23)nc1N1CCC[C@@H]1CO [CBK063517],55.8862
4,Cc1cccc(C)c1NC(=O)CN(c1ccc(F)cc1)S(=O)(=O)c1ccc2c(c1)OCCO2 [CBK264878],98.0285
5,CCCN1CCC(CNC(=O)c2cc(C3CC3)nn2C)CC1 [CBK282536],115.721
6,NS(=O)(=O)c1ccc(NC(=O)CCC2COc3ccccc3O2)cc1 (stereo not shown) [CBK267696],96.245
7,COc1ccc([C@@]23CCC(NC(=S)NCc4ccccc4)C[C@@H]2N(Cc2ccccc2)CC3)cc1 (stereo partly shown) [CBK028140],51.7665
8,Cc1cccc(-c2ccc(CC3(C(N)=O)CCN(C(=O)Cc4ccccc4)CC3)cc2)c1 [CBK285780],105.238
9,O=C(c1ccccc1F)N1C2CCC1CC(O)(c1cccnc1F)C2 (stereo not shown) [CBK284420],85.084
10,O=C(CSCc1ccc(Cl)c(Cl)c1)Nc1cccnc1 [CBK268542],86.6173
11,COc1ncc(-c2nccnc2NCc2cccnc2)c(OC)n1 [CBK036817],139.109
12,Cn1ncc2c(NCCCN3CCCC(CO)C3)nc(C(C)(C)C)nc21 (stereo not shown) [CBK307082],65.1706
13,COc1ccc(-c2nc(Nc3cccc(C(F)(F)F)c3)sc2CC(=O)O)cc1OC [CBK131693],67.1769
14,Cc1cc(C)n(CCCNC(=O)N2CCC(c3nccs3)CC2)n1 [CBK304088],33.0193
15,CC(C)(C)C1=CC2=NC3(CCC3)C3C[C@](O)(COCc4ccccc4)[C@@H](O)[C@@H]3N2O1 (stereo partly shown) [CBK303259],55.617
16,O=c1[nH]c(=O)c2cc(S(=O)(=O)Nc3ccc(Cn4ccnc4)cc3)ccc2[nH]1 [CBK286383],76.1354
17,CCN(CCC(C)c1ccccc1)CCN(C)C (stereo not shown) [CBK261914],100.896
18,CCOC(=O)c1sc(NC(=O)C2CCCO2)c(C(N)=O)c1C (stereo not shown) [CBK058830],45.0014
19,CCC(CO)Nc1nccnc1-c1ccoc1 (stereo not shown) [CBK088756],151.185
20,Fc1ccc(-c2nccnc2NCc2ccncc2)cc1Cl [CBK037422],78.0122
21,Cc1ccc(Br)cc1S(=O)(=O)N1CCN(C(c2ccccc2)c2ccccc2)CC1 [CBK263433],104.856
22,Cc1cc(COc2nc3ccccc3nc2NCCC2=CCCCC2)no1 [CBK173982],54.2659
23,COC[C@@H]1OC[C@@]2(C)C3CC[C@@H](O)[C@@H](CC(=O)NCc4ccccc4)[C@]3(C)CC[C@H]2O1 (stereo partly shown) [CBK289574],102.262
24,Sc1nnc(COc2ccccc2)n1/N=C/c1ccccn1 [CBK265279],100.369
25,c1ccc(COc2ccc3[nH]c4c(c3c2)CCNC42CCN(Cc3ccccc3-c3ccccc3)C2)cc1 (stereo not shown) [CBK039909],28.5192
26,CCc1nn(CC(=O)N(CC)CC)c(=O)c2cc3ccsc3n12 [CBK284132],53.1689
27,O=C(O)c1ccc(Sc2ccc(S(=O)(=O)c3ccc(C(=O)O)c(C(=O)O)c3)cc2)cc1 [CBK261253],99.3953

row,SMILES,% of control remaining
1,Cc1nnc(SCC(=O)NC2CC3CCC2C3)[nH]1 (stereo not shown) [CBK270239],99.0544
2,O=C1CCN(Cc2ccccc2)CCN1C(=O)C1CCCC1 [CBK284829],93.7597
3,O=[N+]([O-])c1ccc(N2CCN(S(=O)(=O)N3CCCC3)CC2)c(Cl)c1 [CBK264772],105.882
4,COc1cccc(/C=N\NC(=O)CN2CCN(Cc3ccccc3)CC2)c1O [CBK263106],102.872
5,CCNC(=O)CN1CCN(c2ccc(C#N)cc2C(F)(F)F)CC1 [CBK306112],80.3367
6,NNc1nccc(Nc2ccccc2C(=O)O)n1 [CBK263145],78.7251
7,O=c1[nH]c(=O)c2cc(S(=O)(=O)Nc3cccc(CCc4ccncc4)c3)ccc2[nH]1 [CBK286397],93.5697
8,COC(=O)c1cccc2c1CCCN2Cc1nnc(C2CC2)o1 [CBK304868],31.1657
9,O=C(NC[C@H]1O[C@@H](CC(=O)N2CCCC2)[C@H](O)[C@@H]1O)c1ccc(F)c(Cl)c1 [CBK288913],94.343
10,O=C(CCc1cccnc1)Nc1ccc(Oc2ccccc2)cc1 [CBK295168],110.282
11,COc1ccc(CN2CCC(O)CC2)c(OC)c1 [CBK261522],86.6002
12,Fc1cccc(-c2nc3cnccn3c2NCc2ccco2)c1 [CBK282323],100.512
13,Cc1cc2n(n1)[C@@H](C(F)F)C[C@@H](C1CCCN(C(=O)C(C)C)C1)N2 (stereo partly shown) [CBK284722],52.8558
14,O=C(Nc1ccccc1N1CCCNCC1)c1ccc2ccccc2c1 [CBK038927T],6.366
15,Cc1cc(NC(=O)c2ccc3ccccc3c2)nc2c1c(=O)oc1ccccc12 [CBK291122],108.051
16,O=C1/C(=C/c2ccc(OCc3cccc4ccccc34)cc2)SC(=S)N1Cc1cccnc1 [CBK264669],55.9452
17,Cc1ccc(/C=C(\NC(=O)c2ccccc2)C(=O)N2CCCC2C(=O)O)cc1 (stereo not shown) [CBK265649],98.367
18,COC(=O)c1ccc(CSc2nnc(-n3sc4ccccc4c3=O)s2)cc1 [CBK116502],87.7298
19,N#Cc1ccccc1NC(=O)CN1CCCCCC1 [CBK270088],114.171
20,c1ccc(-c2nnc3ccccc3c2NCCCN2CCOCC2)cc1 [CBK066892],90.0371
21,Cc1ccc(C(CC(=O)N2CCN(Cc3ccccc3)CC2)c2ccccc2)c(O)c1C (stereo not shown) [CBK262214],99.5726
22,CCOc1cc(S(=O)(=O)NCCCN2CCOCC2)ccc1Br [CBK270111],102.62
23,Cc1cccc(CN2CCCC[C@H]3CN(C(=O)c4cccs4)C[C@H]32)c1 [CBK285530],93.9549
24,CCCC(=O)NC(c1ccc(OC)c(OC)c1)c1c(O)ccc2ccccc12 (stereo not shown) [CBK263269],99.2256
25,Cc1cc(NS(=O)(=O)c2cccc(C(F)(F)F)c2)n(C)n1 [CBK067244],92.4038
26,COc1cc(Cl)cc(C2NC(=S)NC(c3ccccc3)=C2C(=O)c2ccccc2)c1OCC(=O)O (stereo not shown) [CBK266332],107.365
27,CC(C)C(=O)Nc1c(-c2ccsc2)cnc2ncccc12 [CBK083714],113.39

row,SMILES,% of control remaining
1,c1ccc(-c2nc(C3CCNCC3)n3ccncc23)cc1 [CBK035434],117.283
2,CC1=CCCN(C(=O)C23CCOCC2CN(c2ncc(F)cn2)C3)C1 (stereo not shown) [CBK304263],67.7009
3,COC(=O)Cn1c(CN2CCN(c3ccccc3F)CC2)nc2c1c(=O)n(C)c(=O)n2C [CBK269444],102.51
4,CC(C)(O)C#Cc1ccc(C(=O)N2CCC(C(N)=O)(N3CCCCC3)CC2)cc1 [CBK264065],111.029
5,O=C(O)C[C@H](CNC(=O)COc1ccc2ccc(=O)oc2c1)c1ccc(Cl)cc1 [CBK286702],112.425
6,Cc1cccnc1NC(=O)c1ccc(N2CCN(C)CC2)c([N+](=O)[O-])c1 [CBK269366],103.885
7,Oc1ccc(/C=N/n2c(S)nnc2C(F)(F)F)cc1 [CBK265206],88.753
8,CC(C)C[C@H]([C@@H]1C[C@@H](C(C)C)C(=O)O1)N1C(=O)c2ccccc2C1=O [CBK011526],49.8941
9,Cc1c(C)n(O)[n+]([O-])c1-c1ccccc1 [CBK264510N],77.8747
10,CCc1nc2ccc(C(=O)N(C)CCN(C)C)cn2c1N(CC)Cc1cccc(Br)c1 [CBK146962],86.6466
11,CCOC(=O)CNC1CCCCC1 [CBK023276C],11.6076
12,COc1ccc(C(=O)C2CCCCC23NCCN3)cc1 (stereo not shown) [CBK023140],13.6985
13,COc1ccc(-c2ccc(SCC(=O)Nc3cc(C)on3)nn2)cc1 [CBK287634],77.9665
14,COc1ccnc(N2CCN(C(=O)c3cc(C(C)=O)cn3C)CC2)n1 [CBK306272],74.7089
15,COCC(C)NS(=O)(=O)c1cc(Cl)ccc1OC (stereo not shown) [CBK270203],66.443
16,C=C(C)CNC(=O)c1ccc(C)nc1N1CCOCC1 [CBK076389],71.1995
17,CCN(CC)c1c(C)nc2ccc(C(=O)NCc3ccc(N(C)C)cc3)cn12 [CBK145961],122.679
18,O=c1[nH]c2cccc3c2n1C[C@H](NCCc1ccccc1)C3 [CBK016688C],47.8207
19,O=C(O)/C(=N\c1cccc2ccccc12)c1ccccc1 [CBK262224],10.0441
20,CC(C)C(=O)Nc1cc2cccnc2nc1-c1ccc2c(c1)OCCCO2 [CBK073658],102.085
21,O=c1ccccn1COCc1ccccc1 [CBK006438],105.254
22,c1csc(C2Nc3ccccc3C3=NCCCN32)c1 (stereo not shown) [CBK284489],90.1377
23,Cn1cc(-c2nc(C(=O)NCC3CCN(c4ccccc4)C3)cs2)cn1 (stereo not shown) [CBK305633],54.9948
24,CSc1ncc(Cl)c(C(=O)Nc2sc3c(c2C(=O)NCC2CCCO2)CCC3)n1 (stereo not shown) [CBK268959],72.2901
25,CCc1nnc(NS(=O)(=O)c2ccc(NC(=O)c3ccc([N+](=O)[O-])cc3)cc2)s1 [CBK045483],89.1325

# — article PMC12040169 (PLOS Biology, 2025)
